The text below walks through data of the supplement of paper PMC4604168 (melanoma cell lines).

This is one part of the list. Most values come without repeats; read them as rough.
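Further: cells treated in 1,536-well plates, then fixed and DAPI-stained, with nuclei counted from automated high-throughput microscope images.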

The test system of the assay is G361. Put plainly: cell count relative to DMSO control; melanoma cells; higher = more viable cells. Conditions: library dose: standard library concentration; 72 h.
In the case of `CO[C@H]1C[C@@H]2CC[C@@H](C)[C@@](O)(O2)C(=O)C(=O)N2CCCC[C@H]2C(=O)O[C@H]([C@H](C)C[C@@H]2CC[C@@H](OCCO)[C@H](OC)C2)CC(=O)[C@H](C)/C=C(\C)[C@@H](O)[C@@H](OC)C(=O)[C@H](C)C[C@H](C)/C=C/C=C/C=C/1C` [everolimus] + NCC(=O)Nc1ccc(-n2nc(C(F)(F)F)cc2-c2ccc3c(ccc4ccccc43)c2)cc1 [OSU03012] (first compound 0.1 µM, partner dose 5 µM), the cell count was 71.9%.
Then `CC(=O)c1c(C)c2cnc(Nc3ccc(N4CCNCC4)cn3)nc2n(C2CCCC2)c1=O` [palbociclib] + Oc1cc(-c2nc(-c3ccccc3)[nH]c2-c2ccncc2)ccc1Cl [L779450] (first compound 0.2 µM, partner dose 1 µM), with 43%.
As to `Nc1ccn([C@@H]2O[C@H](CO)[C@@H](O)C2(F)F)c(=O)n1` [gemcitabine] + CC1(C)NC(=O)N(c2ccc([N+](=O)[O-])c(C(F)(F)F)c2)C1=O [nilutamide] (first compound 0.002 µM, partner dose 5 µM), the cell count was 52.1%.
`CO[C@H]1C[C@@H]2CC[C@@H](C)[C@@](O)(O2)C(=O)C(=O)N2CCCC[C@H]2C(=O)O[C@H]([C@H](C)C[C@@H]2CC[C@@H](OCCO)[C@H](OC)C2)CC(=O)[C@H](C)/C=C(\C)[C@@H](O)[C@@H](OC)C(=O)[C@H](C)C[C@H](C)/C=C/C=C/C=C/1C` [everolimus] + C=CCNC1=C2C[C@@H](C)C[C@H](OC)[C@H](O)[C@@H](C)/C=C(\C)[C@H](OC(N)=O)[C@@H](OC)/C=C\C=C(/C)C(=O)NC(=CC1=O)C2=O [Tanespimycin] (first compound 0.1 µM, partner dose 0.01 µM): the cell count was 47.1%.
`CC(=O)O[C@@]12CO[C@@H]1C[C@H](O)[C@@]1(C)C(=O)[C@H](O)C3=C(C)[C@@H](OC(=O)[C@H](O)[C@@H](NC(=O)OC(C)(C)C)c4ccccc4)C[C@@](O)([C@@H](OC(=O)c4ccccc4)[C@H]21)C3(C)C` [Docetaxel] + CC1(C)NC(=O)N(c2ccc([N+](=O)[O-])c(C(F)(F)F)c2)C1=O [nilutamide] (first compound 0.0005 µM, partner dose 5 µM) yielded a cell count of 13.7%.
Take `CC(=O)c1c(C)c2cnc(Nc3ccc(N4CCNCC4)cn3)nc2n(C2CCCC2)c1=O` [palbociclib] + NCC(=O)Nc1ccc(-n2nc(C(F)(F)F)cc2-c2ccc3c(ccc4ccccc43)c2)cc1 [OSU03012] (first compound 0.2 µM, partner dose 5 µM): the cell count worked out at 55.3%.
The figure for `Nc1nc(F)nc2c1ncn2[C@@H]1O[C@H](CO)[C@@H](O)[C@@H]1O` [fludarabine] + Nc1cccc2c1CN(C1CCC(=O)NC1=O)C2=O [lenalidomide] (first compound 1 µM, partner dose 5 µM) is 89.1%; for `CC(=O)O[C@@]12CO[C@@H]1C[C@H](O)[C@@]1(C)C(=O)[C@H](O)C3=C(C)[C@@H](OC(=O)[C@H](O)[C@@H](NC(=O)OC(C)(C)C)c4ccccc4)C[C@@](O)([C@@H](OC(=O)c4ccccc4)[C@H]21)C3(C)C` [Docetaxel] + Oc1cc(-c2nc(-c3ccccc3)[nH]c2-c2ccncc2)ccc1Cl [L779450] (first compound 0.0005 µM, partner dose 1 µM) it is 11.7%.
The figure for `Nc1ncn([C@H]2C[C@H](O)[C@@H](CO)O2)c(=O)n1` [decitabine] + CC1(C)NC(=O)N(c2ccc([N+](=O)[O-])c(C(F)(F)F)c2)C1=O [nilutamide] (first compound 0.5 µM, partner dose 5 µM) is 83.2%; for `CC(=O)O[C@@]12CO[C@@H]1C[C@H](O)[C@@]1(C)C(=O)[C@H](O)C3=C(C)[C@@H](OC(=O)[C@H](O)[C@@H](NC(=O)OC(C)(C)C)c4ccccc4)C[C@@](O)([C@@H](OC(=O)c4ccccc4)[C@H]21)C3(C)C` [Docetaxel] + CN(NC(=O)CC(=O)NN(C)C(=S)c1ccccc1)C(=S)c1ccccc1 [STA4783] (first compound 0.0005 µM, partner dose 0.03 µM) it is 11.7%.
As to `CC(=O)O[C@@]12CO[C@@H]1C[C@H](O)[C@@]1(C)C(=O)[C@H](O)C3=C(C)[C@@H](OC(=O)[C@H](O)[C@@H](NC(=O)OC(C)(C)C)c4ccccc4)C[C@@](O)([C@@H](OC(=O)c4ccccc4)[C@H]21)C3(C)C` [Docetaxel] + O=C(O)[C@@H]1[O][Sb](=[O])([O][Sb]2(=[O])[O][C@H]([C@H](O)CO)[C@H](O)[C@H](C(=O)O)[O]2)[O][C@H]([C@H](O)CO)[C@@H]1O [stibogluconate] (first compound 0.0005 µM, partner dose 10 µM), the cell count came to 14.1%.
